# Test results published in the RNAGym collection of RNA variant scans (doi:10.7554/elife.90254).
# The source gives no read counts; variants with many changes may rest on few reads.
# B1: LINE1-mini (parent)
# chain: GGCAGAGCUCAACACAGCGUGGCAAAGUGGCUGUGGCUAGACUGCC
# Variants of: B1
# Experiment: self-cleavage, relative activity (ratio to wild type); higher = more cleavage; in vitro, sequencing; the parent is a self-cleaving ribozyme
row,Variant,self-cleavage
1,A12U C23U G35C G44U,0.05
2,A12U A16U G17A G30U U34G G35U,0
3,A12U U32G A39C C42G C46G,0.01
4,A12U C15G A25G G30C G33U,0.01
5,C13A A16G A26U,0.02
6,A12G U20A G33U G44U,0
7,A12U U20A G22U,0.8
8,A12G G19C G44A,0.02
9,A12U G19C A41C,0.03
10,A12U C13A U20A C31A G33A,0.01
11,A12G G30A A39G,0
12,A12U C37A U38G A41C,0.01
13,A12U U20A C23U G36C U38C A41G C45U,0.03
14,A12G C37A A39U,0.17
15,A12G G33A U38C,0.49
16,C13A A16C A25C G44C C46A,0.02
17,A12G G17A G33C A39C,0
18,A12U G27U G29A,0.18
19,A12G G27C C37U,0.01
20,A12G C18A G21U,0.04
21,A12G U28A G33U G35A C42G,0.04
22,A12U C23U A26U C37U,0
23,A12G G17U G19A G40U,0.01
24,A12G C31G C45G,0.02

row,Variant,self-cleavage
1,A12G C23A U32G G35U U38C,0.03
2,A12G C18G G27A U43A,0.06
3,A12U C23G U28A U32G C45U,0.03
4,A12G C13G G30U G33A C42G,0
5,C13A A14G G21C C23A A24G,0.03
6,C13A A14U C15U G29C G33A,0.11
7,C13A A14C U38A,0
8,A12G G21U A41U,0.12
9,A12G C13U G29A,0.03
10,A12G G30C A39G C42G,0
11,A12U C15G U38G,0
12,A12U C13A G22U U43C,0.06
13,A12U U34C C42G,0.03
14,C13A A16G C45U,0.07
15,A12G G22U A41G,0.04
16,A12G G35C C46A,0.05
17,C13A A14G C18U U20A,0.05
18,A12G C13U U20C G30U,0.04
19,A12U G21C C31U U34G,0.02
20,A12U A14G A16U G40U,0.05
21,C13A A16C G33U C46G,0.03
22,A12G U20A C42G,0.03
23,A12U U32C C45U,0.07
24,A12U C13U C37A C46U,0.06

row,Variant,self-cleavage
1,A12G G27U U38A,0.01
2,A12U A25U U28G U38C C45A,0.06
3,A12G G21C A41C U43C C46U,0.02
4,A12U C23U U28C,0.03
5,A12U G17A G40A A41G,0.02
6,A12G G17U C42G,0.1
7,A12G G22U C23A U32G G33A U34C,0.14
8,A12U G36C C46A,0
9,A12G C15G G27C,0.02
10,A12U C15A A16U,0.02
11,A12G C23U A26G G36U C46U,0.01
12,C13A A14U G21U A25C U43A,0.01
13,A12G U28C G30U C31U U43A,0.01
14,A12U U20C A25U U32G,0.01
15,A12U G17C C23A G29U,0
16,A12U C15A G33C,0.02
17,A12U U28G G30A A41G,0.03
18,A12U C18U G44A,0.18
19,A12U C42G C45A,0.14
20,A12G C23G G29C,0
21,A12G C15A C31A G35U,0.01
22,A12G C13U G27C C46A,0.02
23,A12U G27C G35C A41C,0.02
24,A12U C13U A14C G19U G44A,0.02

row,Variant,self-cleavage
1,A12G G33C A39G,0.02
2,A12U C13U C23G A24U U28C C46G,0.19
3,A12G G36U C46G,0.01
4,A12G G17U C37A C45G,0
5,A12U G17U A25C G35C,0.11
6,A12G U20A A25G G30C,0.03
7,A12U C15U G40U,0.03
8,A12U G21U A25G G36C,0.05
9,A12U G33U G40C,0.05
10,A12U A25C G29A U43C G44U,0.06
11,A12U C23A G35U U43G,0.34
12,A12G U20A G30A A39G C46A,0.01
13,A12U G22A G40C,0.05
14,A12U C15A U20C G22C G27U,0.08
15,A12U G17U U32C C37A,0.01
16,A12G G27A G29U G30A C42G,0.01
17,A12U G19A G33A G36A G44U C46A,0.02
18,A12U C13G G22U G27A U28C G30A,0.32
19,A12U G33C A41C,0.01
20,A12U C13A U20A A26C G29A G33C,0.05
21,A12G C15G A26U G27U G40A,0.05
22,A12U C37G C46U,0.03
23,A12U G22U U34C,0.04
24,A12G G17A A25C C31A,0.03

row,Variant,self-cleavage
1,A12U C15U U32G G35U G36U,0.01
2,A12U A24U C31G,0.01
3,A12U C42A U43G,0.03
4,A12G G29U U32C G33C C37A,0.04
5,A12G G17U C18G G21U A39C,0.01
6,A12U G21A C37A,0.01
7,A12U A24C G30A,0.09
8,A12G C13U A24U,0.04
9,A12G G36A U38G,0.01
10,A12G C31A U32G G33C C45G,0.03
11,A12G U20G A25C A26U C31U C37G,0
12,A12U C13A C23G G35C,0.04
13,A12U C18U G29A,0.76
14,A12G U34A G35C G40C U43G,0.03
15,C13A A16G C37A G40U,0.01
16,A12G C18G C45U,0.03
17,A12U G17C C23U,0.22
18,A12U A16C G17A G36U,0.03
19,A12G G17A G29U A41U,0.02
20,A12G C13U C15G A16G C31A C37A U43C,0
21,A12U C45U C46A,0.37
22,C13A A14C A25U U34A G40C,0.06
23,A12U U28A G30A,0.32
24,A12G G17A A24G,0.05

row,Variant,self-cleavage
1,A12G G19U G21C G44A,0.01
2,A12U U34A C46G,0.01
3,A12G U28A C31U,0.01
4,A12G C23A G35A,0.02
5,A12U A14U G22A C37U G44U,0.02
6,A12U A16U G17C C37U,0.07
7,A12U U20C G21U U32G G35U,0.09
8,A12G G19A A41G,0.02
9,A12U C15A G40C,0.07
10,A12G C13U G30A,0
11,A12U G30A A41U,0.1
12,A12U C31A G40A,0.05
13,A12G C15A U28C C42A,0.02
14,A12U A25U U34C C37U C45A,0.01
15,A12G C23A A39U G40C,0.07
16,A12U G30U U43A,0.02
17,A12U A41U G44C,0.1
18,A12U G17U G19A G36A U43A,0.01
19,A12G C23A C31U U34A G35U C42G C45A,0.01
20,A12U A16C G27A G44U,0.02
21,A12G G29C C45A,0.01
22,A12G C18G A24U U38C U43A,0
23,A12G G19U G36A C42U,0.01
24,A12U G21C A39U,0.06

row,Variant,self-cleavage
1,A12U A16C A24C,0
2,A12G G35A C45A,0.01
3,C13A A14U G27A G29U,0.09
4,A12G C23U C31U U34C,0.05
5,A12U G27A U28G,0.03
6,A12G C13U G17C C18U U28C,0.02
7,A12G C18G U28C U32A C37G,0.01
8,A12G U20A G30A C37G,0
9,A12U A25C G27C,0.04
10,A12G G17C A26U U32A C45U,0.05
11,A12G C31U G40U,0.03
12,C13A A14G G17C U28A,0.08
13,A12U C15G C23U A26G G27U,0
14,A12U G29A G30C C45U,0.42
15,A12U U34C G44A,0.03
16,A12U G17C C46G,0.04
17,A12G G29C U32C G40C,0.03
18,A12U G27A C37G,0.01
19,A12U C13G A16U,0.08
20,A12U G21U G40U U43A,0.01
21,A12G C18U A24C G35A,0.01
22,A12U A16U G21A A41C G44U,0.01
23,A12U C13G G35C G40A,0.04
